Some of the results follow. The full chains were built here from the parent and the listed change. Values near 0.05 are background.
B1: TEV protease; numbered along this chain (parent)
chain: MGESLFKGPRDYNPISSSICHLTNESDGHTTSLYGIGFGPFIITNKHLFRRNNGTLVVQSLHGVFKVKDTTTLQQHLVDGRDMIIIRMPKDFPPFPQKLKFREPQREERICLVTTNFQTKSMSSMVSDTSCTFPSGDGIFWKHWIQTKDGQCGSPLVSTRDGFIVGIHSASNFTNTNNYFTSVPKNFMELLTNQEAQQWVSGWRLNADSVLWGGHKVFMVKPEEPFQPVKEATQL

Variants of: B1
Test: raw area under fraction-flipped curve 0-4 h after induction (AUC4h, not background-subtracted), DNA-recorder readout of cleavage of the substrate (dimensionless); higher = more cleavage of the substrate by the protease variant
Conditions: temperature: 34 °C; time window: 0-4 h after rhamnose induction
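Also: Bxb1 expression induced with 0.2% (w/v) L-rhamnose at OD600 near 0.5, cultures sampled hourly, flipped fraction per protease–substrate barcode pair counted by paired-end Illumina sequencing.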

| Variant | area with substrate ECLYFQS | area with substrate EDLYFQS | area with substrate EILYFQS | area with substrate EKLYFQS | area with substrate EMLYFQS | area with substrate EQLYFQS | area with substrate ERLYFQS | area with substrate ESLYFQS | area with substrate ETLYFQS | area with substrate EVLYFQS | area with substrate EELYFQS | area with substrate EFLYFQS | area with substrate EGLYFQS | area with substrate ELLYFQS | area with substrate EWLYFQS | area with substrate EYLYFQS | area with substrate EPLYFQS | area with substrate EHLYFQS |
| --- | --- | --- | --- | --- | --- | --- | --- | --- | --- | --- | --- | --- | --- | --- | --- | --- | --- | --- |
| MGESLFKGPRDYNPISSSICHLTNESDGHTTSLYGIGFGPFIITNKHLFRRNNGTLVVQSLHGVFKVKDTTTLQQHLVDGRDMIIIRMPKDFPPFPQKLKFREPQRPERICLVTTNFQTKSMSSMVSDTSCTFPSGDGIFWKHWIQTKDGQCGSPLVSTRDGFIVGIHSASNFTNTNNYFTSVPKNFMELLTNQEAQQWVSGWRLNADSVLWGGHKVFMVKPEEPFQPVKEATQL [E107P] | 0.0936 | 0.103 | 0.086 | 0.0961 | 0.119 | 0.119 | 0.0813 | 0.0881 | 0.111 | 0.0898 | – | – | – | – | – | – | – | – |
| MGESLFKGPRDYNPISSSICHLTNESDGHTTSLYGIGFGPFIITNKHLFRRNNGTLVVQSLHGVFKVKDTTTLQQHLVDGRDMIIIRMPKDFPPFPQKLKFREPQRRERICLVTTNFQTKSMSSMVSDTSCTFPSGDGIFWKHWIQTKDGQCGSPLVSTRDGFIVGIHSASNFTNTNNYFTSVPKNFMELLTNQEAQQWVSGWRLNADSVLWGGHKVFMVKPEEPFQPVKEATQL [E107R] | 0.0807 | – | 0.0931 | – | 0.131 | 0.107 | 0.13 | – | – | 0.101 | 0.146 | 0.11 | 0.11 | 0.0834 | 0.0827 | 0.11 | – | – |
| MGESLFKGPRDYNPISSSICHLTNESDGHTTSLYGIGFGPFIITNKHLFRRNNGTLVVQSLHGVFKVKDTTTLQQHLVDGRDMIIIRMPKDFPPFPQKLKFREPQREERYCLVTTNFQTKSMSSMVSDTSCTFPSGDGIFWKHWIQTKDGQCGSPLVSTRDGFIVGIHSASNFTNTNNYFTSVPKNFMELLTNQEAQQWVSGWRLNADSVLWGGHKVFMVKPEEPFQPVKEATQL [I110Y] | 0.07 | 0.0789 | – | – | – | – | 0.0441 | – | – | 0.0563 | 0.0428 | 0.064 | 0.0506 | – | 0.0713 | 0.0789 | – | – |
| MGESLFKGPRDYNPISSSICHLTNESDGHTTSLYGIGFGPFIITNKHLFRRNNGTLVVQSLHGVFKVKDTTTLQQHLVDGRDMIIIRMPKDFPPFPQKLKFRRPQREERICLVTTNFQTKSMSSMVSDTSCTFPSGDGIFWKHWIQTKDGQCGSPLVSTRDGFIVGIHSASNFTNTNNYFTSVPKNFMELLTNQEAQQWVSGWRLNADSVLWGGHKVFMVKPEEPFQPVKEATQL [E103R] | 0.0806 | 0.101 | 0.0773 | 0.114 | 0.102 | 0.0834 | 0.0847 | 0.0952 | 0.0751 | – | 0.11 | – | – | 0.0797 | 0.0757 | 0.079 | 0.111 | – |
| MGESLFKGPRDYNPISSSICHLTNESDGHTTSLYGIGFGPFIITNKHLFRRNNGTLVVQSLHGVFKVKDTTTLQQHLVDGRDMIIIRMPKDFPPFPQKLKFREPQREERICLITTNFQTKSMSSMVSDTSCTFPSGDGIFWKHWIQTKDGQCGSPLVSTRDGFIVGIHSASNFTNTNNYFTSVPKNFMELLTNQEAQQWVSGWRLNADSVLWGGHKVFMVKPEEPFQPVKEATQL [V113I] | 0.0768 | – | 0.0755 | 0.121 | 0.131 | – | – | 0.0848 | – | 0.107 | – | 0.0999 | 0.1 | 0.0814 | – | 0.0828 | – | 0.121 |
| MGESLFKGPRDYNPISSSICHLTNESDGHTTSLYGIGFGPFIITNKHLFRRNNGTLVVQSLHGVFKVKDTTTLQQHLVDGRDMIIIRMPKDFPPFPQKLKFREPQREERIPLVTTNFQTKSMSSMVSDTSCTFPSGDGIFWKHWIQTKDGQCGSPLVSTRDGFIVGIHSASNFTNTNNYFTSVPKNFMELLTNQEAQQWVSGWRLNADSVLWGGHKVFMVKPEEPFQPVKEATQL [C111P] | 0.0526 | – | 0.0512 | – | 0.0393 | 0.0573 | – | 0.047 | – | 0.0518 | – | 0.0609 | – | 0.0605 | – | – | 0.062 | 0.0458 |
| MGESLFKGPRDYNPISSSICHLTNESDGHTTSLYGIGFGPFIITNKHLFRRNNGTLVVQSLHGVFKVKDTTTLQQHLVDGRDMIIIRMPKDFPPFPQKLKFREPQREERIGLVTTNFQTKSMSSMVSDTSCTFPSGDGIFWKHWIQTKDGQCGSPLVSTRDGFIVGIHSASNFTNTNNYFTSVPKNFMELLTNQEAQQWVSGWRLNADSVLWGGHKVFMVKPEEPFQPVKEATQL [C111G] | 0.0729 | – | 0.104 | – | – | 0.127 | – | 0.117 | – | – | – | – | 0.0684 | 0.0934 | – | – | – | – |
| MGESLFKGPRDYNPISSSICHLTNESDGHTTSLYGIGFGPFIITNKHLFRRNNGTLVVQSLHGVFKVKDTTTLQQHLVDGRDMIIIRMPKDFPPFPQKLKFREPQYEERICLVTTNFQTKSMSSMVSDTSCTFPSGDGIFWKHWIQTKDGQCGSPLVSTRDGFIVGIHSASNFTNTNNYFTSVPKNFMELLTNQEAQQWVSGWRLNADSVLWGGHKVFMVKPEEPFQPVKEATQL [R106Y] | 0.123 | 0.129 | 0.0855 | 0.121 | 0.13 | 0.114 | 0.115 | 0.0889 | 0.0936 | 0.0752 | 0.105 | 0.0983 | 0.0961 | 0.1 | 0.0935 | 0.103 | – | – |
| MGESLFKGPRDYNPISSSICHLTNESDGHTTSLYGIGFGPFIITNKHLFRRNNGTLVVQSLHGVFKVKDTTTLQQHLVDGRDMIIIRMPKDFPPFPQKLKFREPSREERICLVTTNFQTKSMSSMVSDTSCTFPSGDGIFWKHWIQTKDGQCGSPLVSTRDGFIVGIHSASNFTNTNNYFTSVPKNFMELLTNQEAQQWVSGWRLNADSVLWGGHKVFMVKPEEPFQPVKEATQL [Q105S] | 0.0824 | 0.138 | 0.0998 | – | 0.141 | 0.135 | 0.0866 | 0.106 | 0.132 | 0.0744 | 0.121 | – | 0.101 | 0.0867 | 0.0947 | – | 0.124 | – |

From the supplement of paper PMC12217912
